Measured values taken from paper PMC4336329 (PLoS ONE, 2015).
The whole screen tested about 310,000 compounds, of which about 2,200 (0.71%) showed an effect of 50% or more. Effects have a minus sign here. Some of the results follow.

target: human ether-à-go-go-related gene (hERG) potassium channel (human, UniProt Q12809); assay: primary screen, population patch clamp on CHO cells stably expressing hERG
Sequence (Q12809 whole entry, looked up): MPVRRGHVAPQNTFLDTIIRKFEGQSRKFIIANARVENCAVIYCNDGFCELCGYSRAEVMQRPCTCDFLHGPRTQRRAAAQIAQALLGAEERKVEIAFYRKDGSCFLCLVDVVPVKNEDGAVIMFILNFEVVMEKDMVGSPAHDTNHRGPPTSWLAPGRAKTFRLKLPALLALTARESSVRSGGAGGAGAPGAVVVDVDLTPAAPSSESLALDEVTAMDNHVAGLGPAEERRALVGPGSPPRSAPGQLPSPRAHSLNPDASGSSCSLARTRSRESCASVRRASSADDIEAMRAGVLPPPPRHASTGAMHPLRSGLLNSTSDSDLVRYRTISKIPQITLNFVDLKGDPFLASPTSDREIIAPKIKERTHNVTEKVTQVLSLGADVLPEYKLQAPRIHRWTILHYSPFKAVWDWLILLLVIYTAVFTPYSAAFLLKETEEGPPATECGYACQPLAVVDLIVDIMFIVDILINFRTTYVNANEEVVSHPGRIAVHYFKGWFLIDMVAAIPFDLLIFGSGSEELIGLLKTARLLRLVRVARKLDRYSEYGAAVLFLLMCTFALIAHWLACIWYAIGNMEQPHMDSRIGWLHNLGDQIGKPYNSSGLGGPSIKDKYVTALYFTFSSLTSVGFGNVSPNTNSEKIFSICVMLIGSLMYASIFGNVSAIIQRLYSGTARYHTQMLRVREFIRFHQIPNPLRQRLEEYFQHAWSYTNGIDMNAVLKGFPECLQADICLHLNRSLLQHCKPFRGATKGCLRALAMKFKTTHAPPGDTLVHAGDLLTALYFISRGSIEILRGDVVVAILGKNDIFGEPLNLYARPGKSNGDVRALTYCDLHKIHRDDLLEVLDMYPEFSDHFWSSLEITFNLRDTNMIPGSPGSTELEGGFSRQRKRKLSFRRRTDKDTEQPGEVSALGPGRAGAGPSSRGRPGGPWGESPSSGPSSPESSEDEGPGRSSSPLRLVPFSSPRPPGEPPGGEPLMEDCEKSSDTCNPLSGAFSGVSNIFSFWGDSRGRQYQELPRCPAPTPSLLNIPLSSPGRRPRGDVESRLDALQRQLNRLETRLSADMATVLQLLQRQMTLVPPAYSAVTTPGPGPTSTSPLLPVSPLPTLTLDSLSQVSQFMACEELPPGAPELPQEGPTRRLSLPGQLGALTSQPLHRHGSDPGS

Structure (SMILES)	hERG current change (%, negative = inhibition) at 1uM [%]
CCOC(=O)c1c(C)nsc1NC(=O)C1CCCCC1	13.4
CCC1CCCCN1C(=O)c1noc(C(C)C)c1[N+](=O)[O-] (stereo not shown)	11.3
Cc1ccccc1CS(=O)(=O)Cc1ccc(C(=O)NCCc2ccccc2)o1	16.6
CCc1ccc(N(C(=O)c2csnn2)C(C(=O)NC2CCCC2)c2cccnc2)cc1 (stereo not shown)	0.538
COC(=O)C1=C(CN2CCN(C)CC2)NC(=O)NC1c1cc(C)ccc1C (stereo not shown)	-4.52
COc1ccccc1C(=O)Nn1cnc2ccccc2c1=O	18.3
COc1ccccc1CCNC(=O)CNC(=O)c1ccc2ccccc2c1	8.57
CCC(C)NC(=S)N1CCN(Cc2ccc3c(c2)OCO3)CC1.O=C(O)C(=O)O (stereo not shown)	-1.01
CCc1ccccc1N(CC(=O)N1CCCC1)S(C)(=O)=O	14.8
C/C=C(\C)C(=O)NCCN1C2=NC[C@H](C)N2C[C@@H]1Cc1ccc(OC)cc1	7.75
CCN(CC)CCNC(=O)C(=O)Nc1cc2c3c(c1)CCC(=O)N3CCC2	22.5
CC(=O)[C@@H]1[C@@H]2C(=O)N(c3ccccc3F)C(=O)[C@@H]2[C@H]2c3ccccc3C=NN12	2.45
CC(C)OCCCNC(=O)CN1C(=O)CC(C)(C)S(=O)(=O)c2ccccc21	11.7
O=C(c1nc2ccc(Cl)cn2c1CN1CCCC(CO)C1)N1CCc2ccccc2C1 (stereo not shown)	-3.34
CCOC(=O)c1c(C)[nH]c(C(=O)CN(C)CC(=O)Nc2ccccc2Cl)c1C	8.34
Cc1nn(CC(=O)N2CCN(c3ccccc3)CC2)c(C)c1[N+](=O)[O-]	8.06
CC(=O)C1=C(O)C(=O)N(CCN2CCOCC2)C1c1ccccc1 (stereo not shown)	9.49
CCc1cc2c(=O)c(-c3cnn(-c4ccccc4)c3)c(C)oc2c(CN2CCCCC2)c1O	1.37
COc1ccc([C@@H]2C[C@@H](c3ccccc3)Oc3c(C)ccc(C(C)C)c32)cc1	13.7
O=C(COC(=O)COc1ccccc1)NCc1ccccc1	10.8
Cc1cc(C)c2c(-n3cccc3)c(C(=O)NNS(=O)(=O)c3ccc(F)cc3)sc2n1	-1.19
O=C(Cc1ccccc1)Nc1ccc(S(=O)(=O)N2CCOCC2)cc1	8.76

Structure (SMILES)	hERG current change (%, negative = inhibition) at 1uM [%]
COc1ccc(/C=C2\SC(=S)N(CC(=O)N3CCN(C)CC3)C2=O)cc1	14.2
CC(=O)c1ccc(S(=O)(=O)N2CCn3cccc3C2C)cc1 (stereo not shown)	22.9
CCOc1ccc(C(=O)NCc2ccc3c(c2)OCO3)cc1OCC	14.6
Cc1ccc(NC(=O)NNC(=O)c2ccc3c(c2)NC(=O)C(C)(C)O3)cc1	8.21
O=C(NCCc1nc2ccccc2[nH]1)/C(=C/c1ccco1)NC(=O)c1ccco1	13
NC(=O)CSc1nnc(COc2ccccc2)n1CCc1ccccc1	-9.5
CCCSc1nc2cc(C)c(C)cc2n1CC(C)O (stereo not shown)	10.7
O=C(Cn1cc(SCc2cccc(Cl)c2)c2ccccc21)N1CCOCC1	-3.16
CC(C)c1ccc(C(=O)NC(=S)Nc2ccc3[nH]c(=O)[nH]c3c2)cc1	0.524
CCNC(=O)n1cc(-n2cncn2)c(-c2ccc(Cl)cc2)n1	-11.8
COc1ccc(CCNC(=O)C2CC3Cn4c(nc5cc6ccccc6cc54)C3N2C)cc1 (stereo not shown)	2.44
O=C(CSc1nnc(CNC(=O)c2cccc(C(F)(F)F)c2)o1)NC1CCCCC1	9.71
CCn1c(CSCc2ccc(F)cc2)nnc1SCC(=O)NCc1ccccc1	-4.37
CCOC(=O)c1c(C)[nH]c(C(=O)COC(=O)c2oc3ccc(OC)cc3c2C)c1C	19.3
CCN(CC)c1ccc(NC(=O)c2cnc3ccccn3c2=O)c(C)c1	5.71
CCOc1ccc(-n2c(SC(C)C(=O)OC)nc3c(c2=O)SCC3)cc1 (stereo not shown)	7.36
COC(=O)/C=c1/s/c(=C(/C#N)C(=O)N2CCOCC2)n(-c2ccccc2)c1=O	20.9
O=C(Cn1nnc(-c2ccccc2F)n1)NCCc1ccccc1	8.4
COc1cc(NC(=O)CN(C)C2CCCCC2)c(C)cc1[N+](=O)[O-]	6.09
CCc1nc(SCC(=O)Nc2ccccc2C(=O)OC)n[nH]1	9.59
CCOC(=O)c1c(C)[nH]c(C(=O)CN2C(=O)NC(C)(c3ccc(C)cc3)C2=O)c1C (stereo not shown)	13.6
CCOc1ccc(N(CC(=O)Nc2c(C)n(C)n(-c3ccccc3)c2=O)S(=O)(=O)c2ccc(F)cc2)cc1	-8.79

Structure (SMILES)	hERG current change (%, negative = inhibition) at 1uM [%]
COc1cc(C(=O)NCc2nnc(SCC(=O)NC3CCCCC3)o2)cc(OC)c1OC	14.8
Cc1ccc2c(c1)N(CC(=O)N1CCCC1)C(=O)C(C)O2 (stereo not shown)	22.1
COc1ccc(-c2oc3ccccc3c2C(=O)Oc2ccccc2)cc1	15.4
O=C(O)CNC(=O)c1ccc(NS(=O)(=O)c2ccc3ccccc3c2)cc1	13.2
CCOC(=O)c1c(C)[nH]c(C)c1C(=O)COC(=O)[C@@H]1CCCN1S(=O)(=O)c1ccc(Cl)cc1	9.05
CCOc1ccc(N(CC(=O)Nc2ccccc2C(=O)NC(C)CC)S(C)(=O)=O)cc1 (stereo not shown)	8.87
CC(C)COP(=O)(c1ccc(N(C)C)cc1)C(O)c1ccncc1 (stereo not shown)	-4.05
COc1ccc(N(CC(=O)NCc2ccc(C)cc2)S(=O)(=O)c2c(C)nn(C)c2C)cc1	0.192
CCOC(=O)Cn1nc(/C=C/c2ccc(OC)cc2)ccc1=O	-0.87
COCc1ccc2oc(C(=O)O)cc2c1	5.25
COc1ccc([C@H]2CC(=O)C=C(c3ccc(OC)cc3OC)C2)cc1	15.3
Cn1c(=O)c(=O)n(C)c2cc(N3CCCCC3)c(NS(=O)(=O)c3ccc([N+](=O)[O-])cc3)cc21	-0.114
CN(C(=O)COC(=O)c1cccc(NS(=O)(=O)c2ccc(F)c(F)c2)c1)C1CCS(=O)(=O)C1 (stereo not shown)	4.54
C=CCNC(=S)NNC(=O)c1cc(C)nc2ccccc12	12.8
COc1ccc(C(=O)N/C(=C\c2cccc3ccccc23)C(=O)N2CCN(C)CC2)cc1OC	-6.21
O=C1c2c([N+](=O)[O-])cc([N+](=O)[O-])cc2S(=O)N1Cc1ccccc1 (stereo not shown)	18.4
COc1ccc(S(=O)(=O)Nc2cccc(-c3ccc4nncn4n3)c2)cc1	14
CN1C(=O)C(O)(CC(=O)/C=C/c2ccco2)c2ccccc21 (stereo not shown)	1.74
O=C1NC(=S)N(C2CC2)C(=O)/C1=C/c1ccc2c(c1)CCN2CCCCl	5.03
COc1ccccc1OCCSc1nc2ccccc2n1CC(O)CO (stereo not shown)	9.57
CC(=O)Nc1ccc(S(=O)(=O)N2CCC(C(=O)c3ccc(F)cc3)CC2)cc1	-2.12
Cc1ccc(NC(=O)Nc2cccs2)nc1	11.6

Structure (SMILES)	hERG current change (%, negative = inhibition) at 1uM [%]
O=C(/C=C\N1CCOCC1)c1ccc(Br)cc1	7.88
Cc1ccc(C(=O)NCCNC(=O)COc2ccc(Cl)cc2)cn1	12
CC1CCCCN1C(=O)CCS(=O)(=O)c1cccc2nonc12 (stereo not shown)	9.42
Nc1nc2ccccc2n1/N=C/c1ccc2c(c1)OCO2	36.2
S=C(c1ccccc1)N(c1ccccc1)c1ccccc1	10.9
O=[N+]([O-])c1ccccc1NCc1ccc(Cl)cc1	-12.9
O=C(O)c1ccc(N2CC3CC(C2)c2cccc(=O)n2C3)c(NS(=O)(=O)c2cccc(C(F)(F)F)c2)c1 (stereo not shown)	10.4
CC(C)C(c1nnnn1CC1CCCO1)N1CCN(C2CCCC2)CC1.Cl (stereo not shown)	9.21
COc1ccc(CNC(=O)CCNC(=O)N2CCn3c2nc2ccccc23)cc1	2.17
Cc1ccc(CN2CC(C(=O)N(Cc3nnc(-c4ccccc4Cl)o3)C3CC3)CC2=O)cc1 (stereo not shown)	2.14
COc1cc(/C=C/C(=O)O)cc(S(=O)(=O)Nc2cc(Cl)c(Cl)cc2Cl)c1OC	12.9
Cn1c(C(=O)N2CCN(Cc3ccc4c(c3)OCO4)CC2)cc2c(=O)n(C)c3ccccc3c21	9.24
CSc1ccccc1NC(=O)CN(c1ccccc1)S(=O)(=O)N(C)C	3.51
Cc1ccc2[nH]cc(S(=O)(=O)c3ccc(C)c(C)c3)c(=O)c2c1	19.9
COc1ccc(OCC(=O)O/N=C(\N)c2ccc(OC)cc2)cc1	7.07
C/C(=N/NC(=O)c1ccc(Br)s1)c1ccncc1	7.18
COCCCNc1nc2nonc2nc1NCCSC	2.32
CS(=O)(=O)c1ccc(C(=O)Nc2ccc(N3CCCC3)cc2)c(Cl)c1	21.4
O=C(Oc1ccccc1)c1ccc2c(c1)C(=O)N(Cc1ccncc1)C2=O	2.13
